# Experimental data as given in the supplement of paper PMC3334620.
# Over roughly 33,000 sequences, “E-score (-0.5 to 0.5)” has its median near -0.017; the highest 2% begin near 0.3. Some of the results follow.
# Biological target: T1, Sut1 (UniProt P53032)
# T1 sequence: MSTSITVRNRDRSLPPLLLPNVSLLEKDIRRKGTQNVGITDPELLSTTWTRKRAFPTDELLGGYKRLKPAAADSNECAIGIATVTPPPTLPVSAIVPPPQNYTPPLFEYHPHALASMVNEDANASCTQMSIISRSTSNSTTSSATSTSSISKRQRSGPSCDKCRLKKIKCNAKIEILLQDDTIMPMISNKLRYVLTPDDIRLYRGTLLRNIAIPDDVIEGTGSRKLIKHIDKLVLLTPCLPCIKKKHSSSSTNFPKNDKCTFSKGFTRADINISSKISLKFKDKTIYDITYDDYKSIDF
# Assay: PBM E-score (8-mer binding enrichment) (E-score (-0.5 to 0.5)); higher = stronger / more preferred TF binding; most listed sequences are background and not binding sites
# Details: protein concentration: 200 nM; construct: GST-full length
# Description: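 Universal 'all 10-mer' protein binding microarrays (Agilent AMADID 015681) probed with GST-tagged S. cerevisiae TFs (full-length or DBD) made by in vitro transcription/translation (PURExpress), about 100-200 nM. Bound TF was detected with fluorescent anti-GST. Each ungapped 8-mer (which stands for itself and its reverse complement) is scored by the PBM enrichment score (E-score), a modified Wilcoxon-Mann-Whitney statistic from -0.5 to +0.5, computed with the Universal PBM Analysis Suite. Scale: above 0.35 generally sequence-specific binding.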
row,Sequence,PBM E-score
1,ACATGCAG,-0.122
2,AGCAAGCC,-0.186
3,AAGCGTGA,-0.0725
4,CCGGATGA,0.143
5,CCTCGACC,-0.286
6,CTCAGCGA,-0.204
7,AACAAACT,0.197
8,CCACCCGG,-0.228
9,ACTCAAAG,0.0714
10,AGTGGTCA,-0.0841
11,ATGAGGTC,0.0148
12,CAAACGAA,0.116
13,GAGCATGA,-0.17
14,GAAGTATA,0.163
15,CCTGCACC,-0.117
16,CACGGTAC,-0.116
17,CATTATCC,0.078
18,AAAGATGG,0.00344
19,GCGTTCTA,0.109
20,ATCGTTTC,0.163
21,CCAGAACA,-0.0168
22,AAAACTAG,0.0495
23,GCAAAGCC,-0.285
24,TCTTGACA,0.0727
25,ACTAAGTG,0.0363

row,Sequence,PBM E-score
1,CGGGCGTA,-0.177
2,CGGTCTAA,0.0285
3,GAGGAGCA,-0.15
4,CGGAGCGC,0.118
5,GTTCTGAA,0.0848
6,CAGCACCA,-0.229
7,TAGGCTCA,-0.222
8,CGATGTTC,-0.192
9,GGTCCGGA,0.402
10,GAACAAGA,0.178
11,GCGGCGCA,-0.00306
12,ATTGGTGC,0.133
13,TAATAATA,0.282
14,CTATACAA,0.175
15,CACAACTG,-0.302
16,CTTGGAAC,0.0161
17,GGCAGCAC,-0.0985
18,CAGATCCG,0.235
19,AAATAGCC,0.0267
20,ATCCAGAT,-0.00444
21,TCAGCACA,0.0304
22,ACGGATGA,0.0548
23,CCCCTTCA,-0.256
24,ACGTTAGT,0.122
25,GGCTAGGA,-0.172

row,Sequence,PBM E-score
1,GTTCGGAA,0.289
2,CTCCATGC,-0.29
3,CCGATCGG,0.232
4,AATCCGCC,-0.0498
5,AAATGCTT,0.0544
6,GAGTCGGC,0.00136
7,AGGGTGTG,-0.207
8,ACCTTCGT,-0.0335
9,CTCTTTCA,-0.0293
10,CGTCAGAA,-0.194
11,GCGTACCA,-0.194
12,AGTGGCGC,-0.0966
13,GGCAGACC,-0.261
14,ACTAGCCT,0.0941
15,ACACCCCT,-0.232
16,ACCAGGAA,-0.00996
17,AACCTGGT,-0.129
18,ACCCCGCC,0.0662
19,ACCAACAG,-0.297
20,CCCGCCCA,-0.205
21,CAATCTGA,0.0772
22,CAGCTCAC,-0.0502
23,CTTTGTCC,-0.0272
24,CCTCGGGC,-0.209
25,AACGACGG,-0.0621

row,Sequence,PBM E-score
1,CGCGAGTA,-0.0234
2,CCACATTA,-0.101
3,ACGGAGGA,0.0201
4,CATTGTGA,-0.0602
5,CCAGGGGC,-0.412
6,CTCCCCCA,-0.412
7,CTCACCTC,-0.0995
8,AAACTGTG,0.0297
9,GGCCTCAC,-0.136
10,AGGCGCTC,-0.145
11,GATGACAA,0.137
12,GCGAACAC,-0.158
13,CCTTGCAG,-0.143
14,TAACTCAA,0.0942
15,ATATGCGA,0.0338
16,ATCTGCTG,-0.143
17,ATACGACA,0.0367
18,ATAAGAAT,0.168
19,AGCAACGC,0.0167
20,AAAGGCCA,-0.0689
21,ACCAGTAA,0.0966
22,ACATTACA,0.186
23,AAAGCTAT,0.0634
24,CTGGAAGC,-0.319
25,AATGCACC,0.02

row,Sequence,PBM E-score
1,CATAGAGC,-0.253
2,AATTAACC,0.219
3,GAACGCCA,-0.0274
4,TGCTTGAA,0.102
5,ACCCGGTA,-0.00409
6,CTGGGTTA,0.0488
7,CAAGTGAC,-0.0165
8,CTGAGGTC,-0.347
9,CCTCTTGC,-0.257
10,GAGGTTCC,-0.199
11,GATCCATA,0.0449
12,ACTGACTC,-0.00408
13,ACAGCAGC,0.0163
14,CACTCCAG,-0.176
15,CAGCTGAG,-0.136
16,CGAGTCAG,-0.00182
17,CTATACCA,-0.0418
18,AACTTGAT,0.27
19,GGACGTAC,-0.142
20,AGTAGTAT,0.0418
21,GAAGTAAA,0.223
22,TCATGGGA,-0.0888
23,AGTGAGAC,-0.0785
24,CTAGGCGC,-0.12
25,CGACGGCG,-0.269

row,Sequence,PBM E-score
1,CGCCAATA,-0.102
2,ACTTACCT,-0.113
3,AATGCCTA,0.0556
4,GTCCAAAA,0.189
5,AATCGTGC,0.161
6,CAACGAGC,-0.303
7,AAAAAGTC,0.242
8,AACGACAT,0.0198
9,TGCAGACA,-0.113
10,AAGGCTGC,-0.11
11,CTTTCAGA,0.0565
12,CTGAACCA,-0.151
13,TGAATCCA,0.103
14,ACCAGACA,-0.0664
15,CTAGTCGA,0.103
16,GACCATGA,-0.257
17,GCGCTTCA,0.0784
18,AAGACCAA,0.0228
19,AAGGGGCG,-0.252
20,GAGACTGC,-0.128
21,ACTGATTA,0.111
22,TCGTGTCA,-0.0574
23,CCCTGCGC,-0.226
24,AAACTATG,0.0992
25,ACGTTAAA,0.206

row,Sequence,PBM E-score
1,CCACGTAG,-0.385
2,CGTGCTTC,-0.0573
3,CGTTAAAG,0.0442
4,AACTTATC,0.164
5,ATCACCCC,-0.0853
6,CTAAAAAC,0.112
7,CCTAGCCG,-0.0997
8,AGCCCAGA,-0.172
9,GCGCGTCC,-0.172
10,GAGGTTCA,-0.0647
11,ACAACAGA,0.00764
12,TACCCGAA,0.0219
13,CGCACCTA,-0.26
14,ACATATCG,0.052
15,ATAGGCAG,0.0777
16,CGTACTTC,0.115
17,AAACCGAT,0.0387
18,CAGCGGCC,-0.151
19,GCGGCTCA,-0.112
20,CGTTATAG,0.0722
21,ATGTGGTG,-0.0634
22,TGAGAAAA,0.131
